Data published in PubChem BioAssay AID1346428 (National Center for Advancing Translational Sciences (NCATS), 2018).
The campaign covered roughly 48,000 compounds. About 1,200 (2.5%) were called active. Roughly 2% stayed inconclusive and do not appear here.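 Rule for the calls: active = activation of at least 60% and not above a set upper limit (about 1 call in 100 departs from these limits); inconclusive = activation of 40% to 60%, or above that upper limit; inactive = activation under 40%.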 The list shows a part of the results.

biological target: Probable G-protein coupled receptor 32 (Homo sapiens) (UniProt O75388); test: qHTS for Agonists of Human Resolvin D1 Receptor DRV1; conditions: CHO-K1 GPR32 beta-arrestin PathHunter luminescence, 90 min; at 76.9 µM; hits give high values; zero percent set by DMSO-only wells; note: 0% is about no effect
Method in brief: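 Readings come from a cell-based beta-arrestin complementation format: CHO-K1 GPR32 stable cells (2,500/well) treated 90 min with compounds, then beta-Gal substrate added for 1 h before chemiluminescence imaging.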

Chain of UniProt O75388 (O75388 whole entry, looked up): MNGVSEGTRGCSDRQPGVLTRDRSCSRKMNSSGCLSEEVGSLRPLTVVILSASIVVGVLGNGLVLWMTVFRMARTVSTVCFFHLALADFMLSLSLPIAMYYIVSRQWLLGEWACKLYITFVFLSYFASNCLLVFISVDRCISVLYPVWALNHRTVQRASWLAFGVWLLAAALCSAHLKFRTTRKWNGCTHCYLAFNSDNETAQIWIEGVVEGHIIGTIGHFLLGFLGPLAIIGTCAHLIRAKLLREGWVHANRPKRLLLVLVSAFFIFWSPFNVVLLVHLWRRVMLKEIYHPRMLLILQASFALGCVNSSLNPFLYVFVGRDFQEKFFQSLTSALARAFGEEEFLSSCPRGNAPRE

| SMILES | activation |
| --- | --- |
| CCOc1ccc(-c2c(C)nn3c(-c4ccccc4)c(C(=O)NCCOC)cnc23)cc1OCC | inactive: 13.2% |
| CC(=O)Oc1ccc(C(c2ccc(OC(C)=O)cc2)c2ccccn2)cc1 | inactive: -15.8% |
| COc1cccc(C(=O)Nc2cc(-c3ccccc3)nn2-c2ccccc2)c1 | inactive: -8.98% |
| CN(C)S(=O)(=O)N1CCC(n2cnc3cccnc32)CC1 | inactive: -1.72% |
| COc1ccccc1Cn1c(CNS(=O)(=O)c2ccc(CC(C)C)cc2)nc2cccnc21 | inactive: -22.6% |
| Cc1ccc(CCNC(=O)c2cc3cc4cc(C)ccc4nc3s2)cc1 | inactive: -2.74% |
| COc1ccc(NC(=O)N(C(C)C)C2CCN(C(C)=O)CC2)c(OC)c1 | inactive: -14.9% |
| CCOc1ccc(NC(=O)Cn2cc(C(=O)c3ccc(OCC)cc3)c(=O)c3cc4c(cc32)OCCO4)cc1 | inactive: 12.6% |
| CCc1ccc(NC(=O)CC2C(=O)N(c3ccc(C)cc3)C(=O)N2CCc2ccncc2)cc1 (configuration not stated) | inactive: -5.76% |
| COC(=O)Cc1c(C)c2cc3c(c(C)c2oc1=O)OCN(CCc1ccc(F)cc1)C3 | inactive: 7.45% |
| COc1cccc(NC(=O)CN2C(=O)COc3ccc(S(=O)(=O)N4CCCCCC4)cc32)c1 | inactive: -26.7% |
| O=C1C2=C(Nc3ccccc3SC2c2ccc(Cl)c(Cl)c2)c2ccccc21 (configuration not stated) | inactive: -52.2% |
| COc1cccc(N2C(=O)C(CC(=O)Nc3ccc(F)cc3)N(CCC3=CCCCC3)C2=O)c1 (configuration not stated) | inactive: -4.51% |
| COc1ccc(NC(=O)CN(C)S(=O)(=O)c2ccc(C(=O)N3CCOCC3)s2)cc1 | inactive: -26.4% |
| Cc1cccc(C)c1OCC(=O)N1CCC(c2nc3ccccc3o2)CC1 | inactive: -7.13% |
| Nc1c(C(=O)NCc2ccc3c(c2)OCO3)nnn1CC(=O)Nc1ccc(Br)cc1 | active: 61.5% |
| Cc1ccc(Cn2cc(C(=O)c3ccc(C)cc3)c(=O)c3ccc(C)nc32)cc1 | inactive: -0.292% |
| CCc1ccc(-c2cc(C)no2)cc1S(=O)(=O)Nc1ccc(Cl)cn1 | inactive: -7.43% |
| Cc1cccc(NC(=O)CSc2cn(CC(=O)N3CCCC3)c3ccccc23)c1C | inactive: -15% |
| CC(=O)N1CCCc2cc(S(=O)(=O)N3CCCC(C(=O)NCc4ccccc4)C3)ccc21 (configuration not stated) | inactive: 5.13% |
| Cc1cc(SCC(=O)Nc2ccc(Cl)cc2)nc2ccccc12 | inactive: -2.57% |

| SMILES | activation |
| --- | --- |
| Cn1c(=O)n(Cc2ccccc2Cl)c(=O)c2c1nc1n2CCN1c1ccccc1 | inactive: 0.744% |
| COc1cccc(CNC(=O)CSc2cc(C)[nH]c(=O)n2)c1 | inactive: -2.84% |
| Cc1c(Cl)cccc1NC(=O)CSc1nc(=O)n(Cc2ccncc2)c2c1CCC2 | inactive: -10.9% |
| Cc1ccc(C(=O)COC(=O)CCCC(=O)Nc2cc(C(F)(F)F)ccc2Cl)cc1C | inactive: -15.4% |
| Cc1oc(-c2ccc(C(=O)NCCCOC(C)C)cc2)nc1CS(=O)(=O)c1ccccc1 | inactive: 3.65% |
| COc1ccc(C(=O)NCc2ccc3c(c2)CCN3C(C)=O)cc1OC | inactive: -12.3% |
| COc1cc2c(cc1OC)n(CC(=O)Nc1ccc(C)cc1C)c(=O)n1nc(-c3ccccc3)nc21 | inactive: -4.93% |
| Cc1cc(Nc2ccccc2F)n2nc(Cc3ccc(Cl)cc3)nc2n1 | inactive: 14.7% |
| CCn1ccc2cc(S(=O)(=O)N3CCCN(C(=O)Nc4ccc(C)cc4Cl)CC3)ccc21 | inactive: -7.09% |
| CC(C)c1ccc(Nc2cc(C(=O)NCCCN(C)Cc3ccccc3)c3ccccc3n2)cc1 | inactive: -19.4% |
| Cc1cccc(NC(=O)CSc2ncc3c(n2)-c2cc(Cl)ccc2N(C)S3(=O)=O)c1C | inactive: 18.6% |
| COC(=O)c1ccc(C2c3c(-c4ccc(Br)cc4)n[nH]c3C(=O)N2c2ccc(Cl)cc2)cc1 (configuration not stated) | inactive: -19.7% |
| CC(=O)N1CCN(C(=O)C(=O)Nc2c3c(nn2-c2ccc(Cl)cc2)CSC3)CC1 | inactive: -1.66% |
| CCc1ccc(OCC(=O)Nc2cc3oc4ccccc4c3cc2OC)c(Br)c1 | inactive: 13.3% |
| CCOc1ccc2c(c1)c(=O)c(S(=O)(=O)c1ccc(CC)cc1)cn2CC | inactive: -6.86% |
| CC1CCN(C(=O)CN2c3ccc(Br)cc3-c3ccccc3S2(=O)=O)CC1 | inactive: -19.9% |
| O=C(COc1ccccc1)Nc1c(C(=O)N2CCN(c3ccc(F)cc3)CC2)oc2ccccc12 | inactive: -16.1% |
| COc1ccc(-c2nnc(SCC(=O)N3CCCCC3)o2)cc1 | inactive: 4.09% |
| CCOc1ccccc1-c1noc(CSc2nnc(-c3ccncc3)n2-c2ccc(F)cc2)n1 | inactive: -14.6% |
| Cc1ccc(-n2ncc(C(=O)NCc3ccc4c(c3)OCO4)c2C2CCN(C(=O)OC(C)(C)C)CC2)cc1C | inactive: -20.2% |
| Cc1ccc(NCc2cccn2-c2nnc(N3CCC(C(=O)NCc4ccccc4C)CC3)s2)cc1 | inactive: -33.6% |

| SMILES | activation |
| --- | --- |
| COc1ccc(CN2CCCN(CC(=O)Nc3ccc(Br)cc3F)S2(=O)=O)cc1 | inactive: 12.8% |
| Cc1c(C(=O)N2CCC(C)CC2)c(S(=O)(=O)Nc2cccc(C#N)c2)c(C)n1C | inactive: -8.9% |
| Cc1c(Cl)cccc1NC(=O)c1cc(-c2cccs2)on1 | active: 91.4% |
| CCOC(=O)c1c(C)[nH]c(C)c1S(=O)(=O)N(C)CC(=O)Nc1cccc(Cl)c1C | inactive: 2.24% |
| CC1=C(c2ccc(C)c(C)c2)S(=O)(=O)N=C1N1CCN(c2cccc(C)c2)C(C)C1 (configuration not stated) | inactive: -4.75% |
| COc1ccc(C(=O)N2CCCCC2CCN2CCOCC2)cc1 (configuration not stated) | inactive: -0.804% |
| CCOc1ccc(NC(=O)CC2Nc3cccc4cccc(c34)NC2=O)cc1 (configuration not stated) | active: 83.1% |
| CN(C(=O)CSc1nc2ccc(NC(=O)COc3ccc(F)cc3)cc2s1)c1ccccc1 | inactive: -1.8% |
| O=C(c1ccccc1Cl)N1CCCC(c2nc3c(nnn3Cc3ccc(F)cc3F)c(=O)[nH]2)C1 (configuration not stated) | inactive: -21.1% |
| CC(C)Sc1ncc(Cl)c(C(=O)Nc2nc3ccc(S(C)(=O)=O)cc3s2)n1 | inactive: 7.44% |
| Cc1cc(-c2ccc(S(=O)(=O)Nc3cccc(C(F)(F)F)c3)s2)on1 | inactive: -5.22% |
| Cn1c(=O)c2c(nc(/C=C/c3cccc(Cl)c3)n2C)n(C)c1=O | inactive: 7.97% |
| CCOC(=O)c1ccc(NC(=O)C2=C(C)C(=O)OC23CCCCCC3)cc1 | inactive: -35.5% |
| Cc1cc(C)c(NC(=O)C2CCN(C(=O)N3CC(C)Oc4ccc(Cl)cc43)CC2)c(C)c1 (configuration not stated) | inactive: -11.6% |
| COc1ccc(NC(=O)c2cc3c(=O)n(Cc4cccs4)ccc3nc2C)c(OC)c1 | inactive: -15.9% |
| Cc1cc(C)cc(NS(=O)(=O)c2ccc(-c3cc(C)no3)s2)c1 | inactive: 0.128% |
| COc1ccc(NC(=O)Cn2c(=O)n(Cc3nc(C)no3)c(=O)c3cc4c(cc32)OCO4)cc1 | inactive: -6.08% |
| CC(=O)OCC(=O)Nc1cc(C#N)cc(NC(=O)COC(C)=O)c1Cl | inactive: 11.8% |
| Cc1c(C(=O)N(C)C)sc2c1c(=O)n(-c1ccccc1C(F)(F)F)c(=O)n2Cc1ccccc1C#N | inactive: -12.3% |
| CN(C)CCCc1cc(C(=O)Nc2ccc(-c3ccncc3)cc2)ccc1O | inactive: -7.62% |
| NC1[C@H]2CN(c3nc4c(cc3F)c(=O)c(C(=O)O)cn4-c3ccc(F)cc3F)C[C@@H]12 (some centres not stated) | inactive: 28.8% |

| SMILES | activation |
| --- | --- |
| Cc1ccc(-c2nc3cc(Cl)ccc3o2)cc1NC(=O)c1cc2ccccc2o1 | inactive: -1.71% |
| COc1ccc(-c2nsc(NC(=O)COc3ccccc3OC)n2)cc1 | inactive: 27.1% |
| CC(C)Cc1nn2c(=O)cc(COC(=O)c3cccc(NC(=O)c4cccs4)c3)nc2s1 | inactive: -15.7% |
| COc1ccccc1CNC(=O)CCCn1c(=O)c2ccccc2n(CC(=O)Nc2ccc(C)cc2Cl)c1=O | inactive: -0.244% |
| Cc1ccccc1Cn1c(=O)n(CC2CCC(C(=O)N3CCC(C)CC3)CC2)c(=O)c2sccc21 (configuration not stated) | inactive: -22.2% |
| CC[C@@H](CO)Nc1nc(NCc2ccccc2)c2ncn(C(C)C)c2n1 | inactive: -5.33% |
| CCOC(=O)c1ccc2c(c1)sc1nc(-c3ccc(OCC)cc3)cn12 | inactive: -3.7% |
| COc1cccc(CNC(=O)Cn2c(=O)cc(C(F)(F)F)c3c(C)nn(C)c32)c1OC | inactive: 16.7% |
| O=C(NCCS(=O)(=O)N1CCN(c2ccccc2F)CC1)c1ccccc1C(F)(F)F | inactive: -12.9% |
| CCN(CC)CCCNC(=O)c1c2c(nc3ccccc13)C(=O)N(C1CCCCC1)C2 | inactive: 4.35% |
| Fc1ccc(F)c(Nc2c3c(nc4ccc(Cl)cc24)CCC3)c1 | inactive: 30.4% |
| COc1ccc(NC(=O)CCc2nc3cccnc3n2-c2ccccc2)c(OC)c1 | inactive: 2.16% |
| COc1ccc(N2C(=O)C(CC(=O)Nc3ccc(Cl)cc3)N(Cc3ccc4c(c3)OCO4)C2=O)cc1 (configuration not stated) | inactive: -2.99% |
| CCOC(=O)c1c(NC(=O)c2cc(=O)c3cc(Cl)ccc3o2)sc(C)c1C | inactive: 39.3% |
| Cc1ccc(C)c(N2CCN(C(=O)CN3CCSc4ccccc43)CC2)c1 | inactive: -15.9% |
| COc1cc(C(=O)Nc2ccccc2OCc2cc(=O)n3c(C)csc3n2)cc(OC)c1OC | inactive: 1.74% |
| CCOc1ccc(CCNC(=O)CSc2nnnn2-c2ccccc2Cl)cc1OCC | inactive: -5.93% |
| COCCn1c(=N)c(C(=O)NCC2CCCO2)cc2c(=O)n3ccccc3nc21 (configuration not stated) | inactive: -4% |
| CCN1CCN(C(c2ccc(C)cc2)c2sc3nc(-c4ccco4)nn3c2O)CC1 (configuration not stated) | inactive: 45.6% |
